Target: PRMT5/MEP50 Complex (Homo sapiens (Human), UniProt O14744)
Assay: PRMT5 inhibition based on TR-FRET assay
Format: biochemical
Details: 32 nM PRMT5:MEP50 complex, 50 nM Histone-H4 peptide, 1 μM SAM, 90 minutes at room temperature
From the text: Protein arginine methyltransferase 5 (PRMT5) is a type II arginine methyltransferase that catalyze mono- and symmetric demethylation on arginine residues of histone or non-histone proteins in presence of S-adenosylmethionine (AdoMet or SAM) a cofactor responsible for donating the methyl group. PRMT5 is reported to be overexpressed in several human cancers. To identify compounds that inhibit the PRMT5 and decrease its activity, a TR-FRET based assay has been established. Time-resolved fluorescence resonance energy transfer (TR-FRET) HTS assays are homogeneous proximity assays where the interaction of two dye-labeled binding partners is detected by the energy transfer between a donor and an acceptor dye, and the subsequent light emission by the acceptor dye. PRMT5 catalyzes Histone H4 peptide which is biotin tagged to the Lysine amino acid at carboxyl end, in presence of S-adenosyl-1-methionine (SAM) to methylate the peptide. The antibody specific to mono methylated H4 peptide (H4R3) with Ig conjugate binds to the methylated peptide, indirectly binding to the Europium lanthanide. […]
The compound dilutions were prepared as 7.5% DMSO stock solutions in assay buffer. […] The plates were then read on Victor-3 with Excitation at 340 nm and Emissions collected at 615 and 665 nm in TR-FRET protocol. […]

IC50 [µM]	SMILES
0.05	O=C1N(Cc2ccc(N3CC4(COC4)C3)cn2)CCN1C[C@H](O)CN1CCc2ccccc2C1 [Compound 5, (R)-1-((5-(2-oxa-6-azaspiro[3.3]heptan-6-yl)pyridin-2-yl)methyl)-3-(3-(3,4-dihydroisoquinolin-2(1H)-yl)-2-hydroxypropyl)imidazolidin-2-one]
0.046	O=C(c1ncc(-c2ccc(CN3CCN(C[C@H](O)CN4CCc5ccccc5C4)C3=O)nc2)cn1)N1CCCC1 [Compound 102, (R)-1-(3-(3,4-dihydroisoquinolin-2(1H)-yl)-2-hydroxypropyl)-3-((5-(2-(pyrrolidine-1-carbonyl)pyrimidin-5-yl)pyridin-2-yl)methyl)imidazolidin-2-one]
